# Laboratory results published in PubChem BioAssay AID686979 (National Center for Advancing Translational Sciences (NCATS), 2013).
# Several values for one entry are separate records, joined by “and”; a condition that tells them apart may be missing. Equal values may be shown once. About 50,000 (12%) of roughly 420,000 compounds were called active. The inconclusive results got no clear call from the source; some entries with a clear call stand among them for comparison. Calls come from the whole dose curve; as a rule, active = well fitted inhibition curve with a large enough effect; inconclusive = small, poorly fitted or top-dose-only effect; inactive = flat fitted curve, though single readings scatter. No potency is given beside an inconclusive call; the fits are too rough.
# Assay: qHTS for Inhibitors of human tyrosyl-DNA phosphodiesterase 1 (TDP1): qHTS in cells in presence of CPT; note: nearly all actives have a fitted effect of over 55% in size
# Conditions: chicken DT40 Tdp1-/-;hTDP1 cells + 20 nM CPT, ATP luminescence, 48 h; activity change, negative = growth inhibition: at 46.2 µM (top of the series) unless noted
# Outline: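 Chicken DT40 Tdp1-/- cells stably complemented with human TDP1 were seeded at 400 cells/well in medium containing 20 nM camptothecin, exposed to pin-transferred compounds, and grown at 37 °C for at least 48 hr. Viability was read as ATP luminescence.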
# % is set by controls: 0 for no effect and ±100 for the full control effect; potency is the fitted concentration of half-maximal effect; tags give direction and shape of the fitted curve.
Structure (SMILES),"activity change, negative = growth inhibition",Potency
Cc1ccc(S(=O)(=O)NCC(=O)OCC(=O)N2CCc3ccccc32)cc1,inactive: -5.65%,–
CC1CCCCC1NC(=S)NC(=O)c1cccs1 (centres undefined),–,"inconclusive [inhibitor, single point]"
Cc1cc(C)n2nc(SCc3nnc(SCc4ccccc4)s3)nc2n1,–,"inconclusive [inhibitor, partial curve]"
Cc1ccc(C)c2[nH]c(=O)c(CCNC(=O)CCc3ccccc3)cc12,inactive: 6.63%,–
COc1ccc(-n2cc(CN3CCCC3)c(-c3cccc(F)c3)n2)cc1,–,"inconclusive [inhibitor, single point]"
COC(=O)C1=CN(c2ccc(OC)cc2)C(N)=C(C#N)C1c1cccc2ccccc12 (centres undefined),–,active: 5.8 µM
O=C(O)C1Nc2ccccc2C2C=CCC12 (centres undefined),–,"inconclusive [inhibitor, partial curve]"
O=[N+]([O-])c1ccc(O)c(NC(=S)Nc2ccccc2)c1,inactive: -22.1%,–
COC(=O)Cc1c(C)c2ccc3c(c2oc1=O)CN(Cc1ccc(Cl)cc1)CO3,–,"inconclusive [inhibitor, partial curve, poor fit]"
CC(C)CN(C(=O)COC(=O)c1cncc(Br)c1)c1c(N)n(Cc2ccccc2)c(=O)[nH]c1=O,inactive: -17.5%,–
Cn1cc(C(=O)N2CCc3ccccc32)cn1,inactive: -1.96%,–
COC(=O)COc1ccc(S(=O)(=O)NCc2ccncc2)cc1,–,active: 4.11 µM
Cc1ccc(NC(=O)Cc2c(Cl)cccc2Cl)cc1S(=O)(=O)N(C)C,–,"inconclusive [inhibitor, single point]"
CC(NCC(=O)NC(=O)NC1CCCC1)c1ccc(Cl)cc1Cl (centres undefined),inactive: -6.05%,–
COc1ccc(C/C(C)=N/NC(=S)Nc2ccccc2)cc1,–,"inconclusive [inhibitor, single point]"
COc1ccc(-c2cc(C(F)(F)F)n3ncc(C(=O)N4CCCCC4c4cccnc4)c3n2)cc1 (centres undefined),–,active: 16.4 µM
Cc1nn(CCO)c2ncc(C(=O)c3cc(Cl)ccc3O)cc12,inactive: 1.47%,–
O=C(CN1C(=O)NC2(CCCC2)C1=O)OCc1ccc(F)cc1,–,"inconclusive [inhibitor, single point]"
CCOc1ccc(-n2cc(-c3ccccc3)c3c(NCc4ccccc4)ncnc32)cc1,–,"inconclusive [inhibitor, single point]"
CC[C@H](C)[C@H]1CNC(=O)C(=O)N1CC1CCN(CCc2ccc(Cl)c(Cl)c2)CC1,–,"inconclusive [inhibitor, partial curve, poor fit]"
O=C(c1cc(C2CC2)nn1-c1ccccc1)N1CCN(Cc2ccccc2)CC1,inconclusive: -32.9% [inhibitor],–
O=C1C(c2ccncc2)=C(O)c2ccccc21,–,"inconclusive [inhibitor, single point]"
COCCn1c(SCc2ccccc2F)nc2c([nH]c3ccccc32)c1=O,–,"inconclusive [inhibitor, single point]"
CCOc1ccc(NC(=O)CN(C)S(=O)(=O)c2ccc(-c3ccc(=O)[nH]n3)s2)cc1,inactive: -7.17%,–
COC(=O)c1ccc(CNC(=O)COC(=O)CCC(=O)c2ccc(F)cc2)cc1,inactive: 11.5%,–

Structure (SMILES),"activity change, negative = growth inhibition",Potency
Cc1cccc(-c2nnc(SCCOc3ccc4c(C)cc(=O)oc4c3)o2)c1,–,"inconclusive [inhibitor, single point]"
COCCCNC(=O)c1cccc(OC)c1OC,inactive: -6.88%,–
COc1ccc(CNC(=O)C2CCN(S(=O)(=O)N3CCC(C)CC3)CC2)c(OC)c1,–,"inconclusive [inhibitor, single point]"
O=[N+]([O-])c1ccc2nonc2c1Nc1cccc(F)c1,inactive: -27.2%,–
CC(Sc1nncn1C)C(=O)Nc1nnc(-c2ccccc2)s1 (centres undefined),inactive: -0.0057%,–
N#Cc1ccc(CN2CCN(CC(=O)Nc3ccccc3C(=O)NC3CC3)CC2)cc1,–,"inconclusive [inhibitor, single point]"
O=C(Nc1ccc(Cl)c(Cl)c1)c1cccnc1,–,"inconclusive [inhibitor, single point]"
CN(C(=O)CN1C(=O)S/C(=C\c2ccccc2Cl)C1=O)C1CCS(=O)(=O)C1 (centres undefined),inactive: -22.2%,–
CCCSc1ncc(Cl)c(C(=O)Nc2ccc(S(=O)(=O)N3CCCCC3C)cc2)n1 (centres undefined),–,"inconclusive [inhibitor, partial curve, poor fit]"
COc1cccc(NC(=S)N2CCC(Cc3ccccc3)CC2)c1,–,active: 20.6 µM
Cc1ccc2c(c1)c1c(c(=O)n(Cc3ccccc3)c(=O)n1Cc1cccc(F)c1)n2C,–,"inconclusive [inhibitor, single point]"
C=CCn1c(SCC(=O)NC2(C#N)CCCCC2)nnc1-c1ccncc1,inactive: 1.66%,–
CCCCC[C@@H](C)N1C[C@@H](COCc2ccccc2)Oc2cc(N3CC[C@@H](O)C3)ccc2S1(=O)=O,–,"inconclusive [inhibitor, single point]"
CC1(C)CC(=O)C(CC(=O)N2CCC(Cc3ccccc3)CC2)C(=O)C1,inactive: -0.242%,–
O=C(NC1(C(F)(F)F)NC(=O)N(c2ccc(F)cc2)C1=O)c1ccncc1 (centres undefined),inactive: 9.04%,–
COC(=O)c1[nH]c2c(c1C)C(=O)CC(c1cc(OC)c(OC)c(OC)c1)C2 (centres undefined),–,active: 23.1 µM
Cc1ccc(Nc2cc(C)nc3ccccc23)c(C)c1,–,active: 11.6 µM
O=[N+]([O-])c1cccc(S(=O)(=O)N2CCN(c3ccccn3)CC2)c1,inactive: 1.29%,–
COc1ccc([N+](=O)[O-])c(S(=O)(=O)c2ccc(Cl)cc2)n1,–,active: 1.03 µM
CC1Cc2ccccc2N1C(=O)COC(=O)c1n[nH]c(=O)c2ccccc12 (centres undefined),–,"inconclusive [inhibitor, partial curve, poor fit]"
COc1cc(NC(=O)c2cncc(-c3ccc(C#N)cc3)c2)cc(C(=O)Nc2cccc(C(F)(F)F)c2)c1,–,active: 8.2 µM and active: 16.4 µM
COc1ccc(-c2ccc(CCC(=O)O)n2-c2ccccc2C(F)(F)F)cc1,–,"inconclusive [inhibitor, single point]"
O=C(O)c1ccc(CN2C[C@@H](CO)O[C@@H](n3cnc4c(NCc5ccco5)ncnc43)C2)cc1,inactive: 9.06%,–
CCN(/N=C/c1ccc(N(C)C)cc1)c1nc2ccccc2[nH]1,–,"inconclusive [inhibitor, single point]"
COc1ccc(NC(=O)COc2ccccc2Cc2ccccc2)cc1S(=O)(=O)N1CCOCC1,–,"inconclusive [inhibitor, single point]"

Structure (SMILES),"activity change, negative = growth inhibition",Potency
Cc1ccc(NS(=O)(=O)c2ccc3c(c2)NC(=O)CO3)cc1Cl,–,active: 18.4 µM
CS(=O)(=O)c1ccc(-c2cccc(NC(=O)c3ccco3)c2)nn1,–,"inconclusive [inhibitor, single point]"
O=C(NC1CCCCCC1)C(=S)N1CCOCC1,–,"inconclusive [inhibitor, single point]"
CCCn1c(N)c(C(=O)CN(C)CC(=O)Nc2c(C)cc(C)cc2C)c(=O)[nH]c1=O,inactive: -15.9%,–
O=C(Nc1ccc(Br)cc1F)c1nc[nH]c1C(=O)N1CCc2ccccc2C1,–,"inconclusive [inhibitor, single point]"
Cc1cc(C)c2c(/C=C/c3ccc(N(C)C)cc3)ccnc2c1,–,"inconclusive [inhibitor, single point]"
CC(Oc1ccccc1)C(=O)Nc1ccccc1C(=O)OCc1cc(=O)n2nc(C3CC3)sc2n1 (centres undefined),–,active: 3.66 µM
CCc1nnc(SCC(=O)Nc2ccc(OC)c(OC)c2)c2cc3occc3n12,inactive: -1.35%,–
CC1(C(=O)O)CCC(C(=O)Nc2ccccc2O)C1(C)C (centres undefined),inactive: -17.1%,–
Cc1c(Nc2ncccc2C(=O)O)cccc1C(F)(F)F,–,"inconclusive [inhibitor, single point]"
O=C(C1CCC(=O)N1Cc1ccccc1Cl)N1CCN(c2cccc(Cl)c2)CC1 (centres undefined),–,active: 23.1 µM
COc1ccc(NC(=O)COc2nc3ccccc3nc2N2CCOCC2)c(OC)c1,inactive: -4.67%,–
CCn1cc(C(=O)NCC(OC)OC)c(=O)c2cc(S(=O)(=O)N3CCC(C)CC3)ccc21,–,"inconclusive [inhibitor, partial curve]"
COc1ccc(CC(=O)N[C@@H]2c3ccccc3CC[C@H]2OCc2ccccc2)cc1,–,"inconclusive [inhibitor, single point]"
COc1ccc(NS(=O)(=O)c2ccc(N3CCCC3)c(N)c2)cc1,–,active: 5.17 µM
Cc1ccc(S(=O)(=O)N(CC(=O)N2CCCCCC2)c2ccccc2F)cc1,–,"inconclusive [inhibitor, single point]"
CCOC(=O)CN(Cc1ccccc1)C(C(=O)NC1CCCCC1)c1ccccc1 (centres undefined),–,active: 20.6 µM
CN1CC[C@]2(CCN3CCc4c(oc5ccccc45)[C@@H]3C2)N(C)C1=O,–,"inconclusive [inhibitor, single point]"
COc1ccc(NC(=O)NC(=O)c2cc(OCC(F)(F)F)ccc2OCC(F)(F)F)cc1,inactive: 0.637%,–
CCCOc1ccc(-c2nc(N3CCN(C)CC3)c3ccccc3n2)cc1,–,active: 23.1 µM
CCOc1cc(N2CCOCC2)c(OCC)cc1NC(=O)c1ccc(OC)cc1,–,active: 6.51 µM
O=c1c(-c2ccccc2)nc2cnc(N3CCOCC3)nc2n1Cc1cccs1,–,"inconclusive [inhibitor, partial curve, poor fit]"
Cc1c(C(=O)NCc2ccco2)sc(=O)n1Cc1ccc(S(C)(=O)=O)cc1,inconclusive: -32.7% [inhibitor],–
CNc1c(Br)cc(C(O)C2=CCc3ccccc32)cc1Br (centres undefined),–,active: 8.91 µM
